The record followed here is publication PMC6919601, “Identification of Plasmodium dipeptidyl aminopeptidase allosteric inhibitors by high throughput screening” (PLoS ONE, 2019).

Structures are written as SMILES. Several values for one entry are separate records, joined by “and”; a condition that tells them apart may be missing. Equal values may be shown once. Out of some 110,000 compounds screened, about 230 (0.21%) showed an effect of 50% or more. Some of the results follow.
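Note: 30 min substrate incubation versus DMSO and 10 µM JCP410 controls.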

Sequence of DPAP1 (Q8IIJ9 whole entry, looked up): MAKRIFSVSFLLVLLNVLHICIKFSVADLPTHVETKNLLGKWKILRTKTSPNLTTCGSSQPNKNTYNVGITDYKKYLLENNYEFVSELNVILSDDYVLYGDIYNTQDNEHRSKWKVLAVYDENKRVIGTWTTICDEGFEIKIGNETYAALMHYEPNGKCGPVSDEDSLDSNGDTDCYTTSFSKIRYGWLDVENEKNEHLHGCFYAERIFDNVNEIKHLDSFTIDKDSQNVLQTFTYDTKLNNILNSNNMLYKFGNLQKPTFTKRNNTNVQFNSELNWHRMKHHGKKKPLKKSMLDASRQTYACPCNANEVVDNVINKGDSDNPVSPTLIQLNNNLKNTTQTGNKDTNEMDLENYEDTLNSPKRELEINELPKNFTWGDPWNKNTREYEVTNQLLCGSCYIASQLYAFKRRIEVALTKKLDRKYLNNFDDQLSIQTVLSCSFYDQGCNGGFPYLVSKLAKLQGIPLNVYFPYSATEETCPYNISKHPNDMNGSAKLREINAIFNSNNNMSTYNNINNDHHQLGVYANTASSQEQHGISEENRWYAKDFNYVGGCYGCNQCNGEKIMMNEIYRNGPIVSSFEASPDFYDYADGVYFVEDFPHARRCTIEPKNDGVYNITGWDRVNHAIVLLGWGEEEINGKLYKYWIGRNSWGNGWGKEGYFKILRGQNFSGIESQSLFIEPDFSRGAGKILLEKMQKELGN

This assay addresses DPAP1 (Plasmodium falciparum, UniProt Q8IIJ9). The experiment in a line: primary screen, percent inhibition; read by cleavage of a fluorogenic dipeptide substrate; higher = more effect of the substance. Further details: species or system P. falciparum D10 trophozoite lysates; single well.
With `Nc1c(C(=O)c2ccccc2)sc2nc(-c3ccccc3)ccc12`, the “% Inhibition @ 10 uM” value turned out to be 3.54%.
Turning to `O=S1(=O)N=C(Nc2cccc3c(O)cccc23)c2ccccc21`, the “% Inhibition @ 10 uM” value is listed as -0.425%.
For the compound `O=C(c1ccccc1)c1ccc2nc(NCCC3=CCCCC3)c3nncn3c2c1`, the “% Inhibition @ 10 uM” value is -7.28%.
For the compound `O=C(O)CNC(=O)C(O)(c1ccccc1)c1ccccc1`, the “% Inhibition @ 10 uM” value is listed as -1.47%.
For the compound `CCn1c(Oc2ccc3c(C)cc(=O)oc3c2)nc2c1c(=O)n(C)c(=O)n2C`, the “% Inhibition @ 10 uM” value came to 1.76%.
Turning to `O=C(Nc1cccc(F)c1)c1ccc(N2C(=O)c3ccccc3C2=O)cc1`, the “% Inhibition @ 10 uM” value is -3.71%.
Take `Cc1ccc2c(=O)cc(C(=O)N(Cc3cccs3)C3CCS(=O)(=O)C3)oc2c1` (stereo not drawn): the “% Inhibition @ 10 uM” value is on record as -1.47%.
Next, `COc1ccc(C(=O)Nc2ccc(CC#N)cc2)cc1OC`: -5.47%; `CC(=O)c1cc(-c2ccccc2)n(CCC(=O)NC2CCC(C)CC2)c1C` (stereo not drawn): 4.42%; `C=CCNC(=O)/C(=C/c1ccccc1)NC(=O)c1ccccc1OC`: -1.19%.
Turning to `CN1CCN(c2ccc(Nc3ncnc4sc5c(c34)CCCC5)cc2)CC1`, the “% Inhibition @ 10 uM” value was 8.87%.
For the compound `O=C(NC(Cc1ccccc1)c1ccc2c(c1)OCCCO2)c1ccccc1` (stereo not drawn), the “% Inhibition @ 10 uM” value came out at 0.475%.
Take `CCN(CC)CCn1c(C)nc(=O)c(-c2ccccc2)c1C`: the “% Inhibition @ 10 uM” value is 0.431%.
Take `CCC(Sc1nc2nccnc2c(=O)n1CCc1ccccc1)C(=O)NC1CCCCC1` (stereo not drawn): the “% Inhibition @ 10 uM” value is given as -6.65%.
As for `CC(C)(C)OC(=O)N1CC2CC(C1)c1cccc(=O)n1C2` (stereo not drawn), the “% Inhibition @ 10 uM” value was determined as 1.88%.
For `CC(=O)N1CCN(Cc2cccnc2)CC1`, the “% Inhibition @ 10 uM” value worked out at 5.2%.
For `COCCCNC(=O)N1CCN(c2nnc(C)c3c(C)n(-c4ccccc4)nc23)CC1`, the “% Inhibition @ 10 uM” value amounted to 1.63%.
In the case of `COc1cc(CNC(=O)c2nc(Cn3nc(C)c(Br)c3C)no2)cc(OC)c1` it was -4.11%; in that of `COc1ccc(CC(=O)NCc2nnc(SCC(=O)Nc3nccs3)n2-c2ccccc2)cc1`, -1.3%; in that of `C=CCNC(=O)C(C(=O)OCC)C1CCCCC1` (stereo not drawn), -6.09%.
In the case of `C=CCN1C(=S)NC2CC1(C)Oc1ccc(Cl)cc12` (stereo not drawn), the “% Inhibition @ 10 uM” value is given as -0.58%.
Regarding `CC1CCN(C(=O)c2nn(C)c(=O)c3ccccc23)CC1`, the “% Inhibition @ 10 uM” value was determined as 0.628%.
With `Cc1ccc(CNC(=O)CN(C)S(=O)(=O)c2cccs2)cc1`, the “% Inhibition @ 10 uM” value is recorded as -2.56%.
As to `CCN1C(=O)S/C(=C/c2cccn2-c2ccc(C(=O)O)cc2)C1=O`, the “% Inhibition @ 10 uM” value is -1.82%.
On to `N=C1/C(=C\c2ccc(OCCOc3ccccc3)cc2)C(=O)N=C2SC(N3CCCC3)=NN12`, for which the “% Inhibition @ 10 uM” value is given as 1.72%.
Next, `CSc1c2c(nn1-c1ccccc1)CC(C)(C)CC2=O`: 1.02%.
With `CC1=NN(c2c(F)c(F)c(F)c(F)c2F)C(=O)/C1=C/c1cccc([N+](=O)[O-])c1`, the “% Inhibition @ 10 uM” value is -4.61%.
Consider `COc1cccc(C2C(C#N)=C(N)Oc3c2oc(CO)cc3=O)c1` (stereo not drawn), for which the “% Inhibition @ 10 uM” value is 0.777%.
As to `O=C(Nc1cc(Cl)c(Cl)cc1Cl)c1ccc(Cl)cc1Cl`, the “% Inhibition @ 10 uM” value was -2.6%.
As for `COc1ccc(CCNCC(O)Cn2c3c(c4ccccc42)CCN(C)C3=O)cc1OC` (stereo not drawn), the “% Inhibition @ 10 uM” value is listed as 3.16%.
With `Cc1ccc(C(=O)N2c3ccc(F)cc3CCC2C)o1` (stereo not drawn), the “% Inhibition @ 10 uM” value is listed as -7.81%.
Turning to `Clc1ccccc1N1CCN(C/C=C/c2ccccc2)CC1`, the “% Inhibition @ 10 uM” value is given as -1.64%.
As for `COc1cc(CN2CCN(Cc3cc(OC)c(OC)c(OC)c3)CC2)cc(OC)c1O`, the “% Inhibition @ 10 uM” value turned out to be 11.1%.
Next, `CC(C)n1cc(NC(=O)COc2ccccc2Cl)cn1`: -5.72%; `CCn1c(NC(=O)c2cccs2)nc2ccccc21`: -4.72%; `Cc1ccc(C2NC(=O)Cc3ccccc32)cc1` (stereo not drawn): -0.711%.
In the case of `Cc1ccc(OCC(=O)Nc2cccc(C#N)c2)cc1` it was 0.795%; in that of `C=CCSc1nc(C)c2cc(C)c(C)cc2n1`, 4.75%.
For `CCOCCCNC(=O)C(NC(=O)CNC(C)=O)c1ccc(Cl)cc1` (stereo not drawn), the “% Inhibition @ 10 uM” value was -2.04%.
Next, `Cc1ccc(CNC(=O)CSc2nncn3c2cc2sccc23)cc1`: 1.42%; `COC(F)(C(=O)Nc1nc2ccccc2s1)C(F)(F)F` (stereo not drawn): 1.84%; `CCC(C)OC(=O)C1=C(C)NC(=O)NC1c1ccccc1OCc1ccccc1` (stereo not drawn): 2.7%.
As for `Cc1nnc(N2CCC(C(=O)NCc3ccc4c(c3)OCO4)CC2)c2nn(-c3ccccc3)c(C)c12`, the “% Inhibition @ 10 uM” value is -1.39%.
As for `Cc1nc2ccccc2cc1C(=O)Nc1ccc(C(F)(F)F)cc1`, the “% Inhibition @ 10 uM” value is -3.43%.
For `O=C1C(=Cc2cn(CC(=O)N3CCOCC3)c3ccccc23)C(=O)c2ccccc21`, the “% Inhibition @ 10 uM” value was found to be 3.72%.
Next, `CCCC(=O)Nc1nc2ccc(F)cc2s1`: 4.19%; `O=C(Nc1cccc(Cl)c1)c1cc2nc(C(F)F)cc(C(F)F)n2n1`: 2.08%; `COc1cccc(CN2CCN(Cc3ccccc3C)CC2)c1OC`: 2.39%.
For `CCOc1cc2c(cc1OCC)C(c1cccc(OC)c1)NCC2` (stereo not drawn), the “% Inhibition @ 10 uM” value turned out to be 2.49%.
Next, `CSCCC(C(=O)O)N1C(=O)c2c(Cl)c(Cl)c(Cl)c(Cl)c2C1=O` (stereo not drawn): 19.4%; `Cc1nc(O)nc(O)c1S(=O)(=O)N1CCN(CCOc2ccc(Cl)cc2)CC1`: -1.38%.
For the compound `COc1cc2c(cc1/C=C1/NC(=O)N(CC(=O)Nc3cccc(C)c3)C1=O)OCO2`, the “% Inhibition @ 10 uM” value was -16.5%.
As to `CCN(CC)CCCNC(=O)c1cnn2c(C)c(Cc3c(F)cccc3Cl)c(C)nc12`, the “% Inhibition @ 10 uM” value is on record as -2.26%.
With `COCC(=O)N1CCN(c2nc3ccccc3o2)CC1`, the “% Inhibition @ 10 uM” value is -4.49%.
Take `O=c1oc(/C=C/c2ccco2)nc2sc3c(c12)CCC3`: the “% Inhibition @ 10 uM” value is -4.93%.
For the compound `O=[N+]([O-])c1ccc(CN2CCCCCC2)o1`, the “% Inhibition @ 10 uM” value is reported as -4.35%.
Regarding `N#CC1=C(N)OC2=C(C(=O)CCC2)C1c1ccc(Cl)c(Cl)c1` (stereo not drawn), the “% Inhibition @ 10 uM” value is recorded as -1.86%.
For the compound `Cc1ccc(C)c(NC(=O)Cn2cnc3c(=O)n(C)c(=O)n(C)c32)c1`, the “% Inhibition @ 10 uM” value is -4.12% and 3.53%.
`CCOc1ccc(NC2=NC(=O)/C(=C/c3ccc(N4CCCC4)o3)S2)cc1`: the “% Inhibition @ 10 uM” value was found to be 18.7%.
As for `CC(=O)c1nn(-c2ccc(Cl)cc2)nc1Nc1cnc2ccccc2c1`, the “% Inhibition @ 10 uM” value was -5.33%.
Regarding `Cc1ccc(-c2nc(C(=O)Nc3ccc(Cl)cn3)c3n2CCCCC3)cc1`, the “% Inhibition @ 10 uM” value was 1.14%.
Regarding `COc1ccc(CN(CCCN(C)C)CCCN(C)C)cc1OC`, the “% Inhibition @ 10 uM” value came to 4.8%.
With `Cc1ccc(CN2C(=O)N/C(=C\c3cccn3-c3cccc(C(=O)O)c3)C2=O)cc1`, the “% Inhibition @ 10 uM” value amounted to 7.68%.
As to `CS(=O)(=O)N(CC(=O)Nc1ccccc1C(=O)O)c1ccc(F)cc1`, the “% Inhibition @ 10 uM” value came out at 2.78%.
Turning to `COc1ccc(NC(=O)Nc2ccc(Cc3ccncc3)cc2)cc1`, the “% Inhibition @ 10 uM” value was determined as 4.22%.
In the case of `Cc1ccc(CNC(=O)C(Cc2ccccc2)N2Cc3ccccc3C2=O)cc1` (stereo not drawn) it was 2.59%; in that of `COc1ccc(C2CC(c3cc(OC)ccc3OC)n3nnnc3N2)cc1` (stereo not drawn), 0.0842%.
`Clc1ccc(/C=C/c2nnc3ccccc3n2)cc1`: the “% Inhibition @ 10 uM” value is recorded as -3.44%.
On to `Cc1ccsc1CN1CCN(c2ncccn2)CC1`, for which the “% Inhibition @ 10 uM” value is -0.828%.
On to `c1ccc(CCn2nnc3ccccc32)cc1`, for which the “% Inhibition @ 10 uM” value is reported as -2.98%.
As for `COc1ccc(OC)c(CN2CCN(Cc3cccc(Cl)c3)CC2)c1`, the “% Inhibition @ 10 uM” value is reported as -8.37%.
On to `COc1ccc(OCC(=O)Nc2ccc(NC(C)=O)cc2)cc1`, for which the “% Inhibition @ 10 uM” value was determined as 2.48%.
As to `CCCOc1ccc(Oc2nc(NCC)nc(N(C)C)n2)nn1`, the “% Inhibition @ 10 uM” value is listed as -1.81%.
Take `CCc1ccc(-n2c(C)nc3cc(C(=O)NCCCOC)ccc32)cc1`: the “% Inhibition @ 10 uM” value is recorded as -1.99%.
Take `FC(F)(F)c1ccc(-c2noc(CCc3ccccc3)n2)cc1`: the “% Inhibition @ 10 uM” value is -0.671%.
As to `CCN(c1ccccc1C(=O)O)S(=O)(=O)/C=C/c1ccccc1`, the “% Inhibition @ 10 uM” value is listed as -1.29%.
Turning to `CC(C)CN(CC(C)C)C(=O)/C(=C/c1cn(C)c2ccccc12)NC(=O)c1ccco1`, the “% Inhibition @ 10 uM” value is on record as -1.74%.
In the case of `CC1CCCN(c2ncnc3c2cnn3-c2ccccc2)C1` (stereo not drawn), the “% Inhibition @ 10 uM” value was determined as 5.84%.
For `N#CC1=C(N)N=C(S)C(C(N)=O)C1c1ccccc1` (stereo not drawn), the “% Inhibition @ 10 uM” value was -2.16%.
With `Nc1ccc(C(=O)Nc2ccc(C(=O)O)cc2)c(C(=O)O)c1`, the “% Inhibition @ 10 uM” value is 1.9%.
For `CNc1nc(Sc2nc(C)cc(Cl)n2)nc(N2CCOCC2)n1`, the “% Inhibition @ 10 uM” value is -4.73%.
In the case of `CCOC(=O)N1CCN(C(=O)CN(c2cccc(OC)c2)S(C)(=O)=O)CC1` it was 0.0451%.
On to `CC(C)CC(=O)NCC(C)NC(=O)CC(C)C` (stereo not drawn), for which the “% Inhibition @ 10 uM” value worked out at 5.14%.
Turning to `c1ccc(-c2nn3c(Cn4nnc5ccccc54)nnc3s2)nc1`, the “% Inhibition @ 10 uM” value was determined as 2.89%.
Next, `COc1ccc(CN2CCN(c3ncnc4sc5c(c34)CC(C)CC5)CC2)cc1` (stereo not drawn): -2.65%; `Cc1cccc2sc(NC(=O)C3CCC3)nc12`: 2.02%; `CNC(=O)Cn1nc(C)n2cccc2c1=O`: -5.78%.
Turning to `CC1=C(C(=O)NCCC2=CCCCC2)C2(CCC(C)CC2)OC1=O` (stereo not drawn), the “% Inhibition @ 10 uM” value is listed as -3.7%.
`Cc1cccc(OCC(O)Cn2c(N3CCCC3)nc3c2c(=O)[nH]c(=O)n3C)c1` (stereo not drawn): the “% Inhibition @ 10 uM” value is listed as 3.93%.
As for `CC(C)c1ccc(C(=O)NC(C)c2ccc3c(c2)OCO3)cc1` (stereo not drawn), the “% Inhibition @ 10 uM” value is given as -1.36%.
Take `FC(F)(F)c1ccccc1C1NCCc2c1[nH]c1ccccc21` (stereo not drawn): the “% Inhibition @ 10 uM” value is reported as -3.62%.
For `COCCCNC(=O)/C(C#N)=C/c1cn(CC(=O)N2CCOCC2)c2ccccc12`, the “% Inhibition @ 10 uM” value was -2.5%.
Next, `N#CC1CCN(C(=O)Cn2ncc3c2-c2ccccc2OC3)CC1`: -2.16%.
Regarding `Cc1cccc(OCC(O)Cn2c(N3CCNCC3)nc3c2c(=O)n(C)c(=O)n3C)c1` (stereo not drawn), the “% Inhibition @ 10 uM” value came out at 0.627%.
Next, `O=c1[nH]c(=O)n(Cc2ccc(Oc3ccccc3)cc2)cc1Br`: 1.11%; `O=C(NCCn1cccc1)c1cc(F)c(F)cc1Cl`: -6.42%; `COc1ccc(/C(O)=C/C=N/c2ccc(Br)cc2)cc1OC`: -0.413%.
Regarding `Oc1c(/C=N/Cc2ccncc2)sc2ccccc12`, the “% Inhibition @ 10 uM” value is recorded as -0.467%.
In the case of `Cc1onc(-c2c(F)cccc2Cl)c1C(=O)Nc1ccccc1`, the “% Inhibition @ 10 uM” value is -3.23%.
In the case of `CCn1c2ccccc2n2c(C(=O)OC)c(C)nc12` it was 4.52%; in that of `O=S(=O)(c1ccc(-c2cc(C(F)(F)F)no2)s1)N1CCN(c2ccccn2)CC1`, 2.07%; in that of `CCOc1ccc(C2C3=C(O)CC(C)(C)CC3=Nc3nc(N)nc(O)c32)cc1` (stereo not drawn), -2.91%.
